From the RNAGym collection of RNA variant scans (doi:10.1073/pnas.2313332121)
Variants at the background level are over-represented here.

B1: TPR 5TU (parent)
chain: GGAUCUUCUCGAUCUAACAAAAAAGACAAAUCUGCCACAAAGCUUGAGAGCAUCUUCGGAUGCAGAGGCGGCAGCCUUCGGUGGCGCGAUAGCGCCAACGUUCUCAACUAUGACACGCAAAACGCGUGCUCCGUUGAAUGGAGUUUAUCAUG

Variants of: B1
Assay: polymerase ribozyme fitness, log enrichment relative to wild type (log ratio); higher = more active; in vitro selection for triplet polymerase activity
Method in brief: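 Genotype fitness is the logarithm of its enrichment divided by wild-type enrichment, using inverse-variance-weighted averages of replicates. That logarithm is base 2. Enrichment was measured by Illumina sequencing of input and output libraries from one triplicate in vitro selection round, with frozen incubation at −7 °C, on PCR-built, transcribed mutant libraries of each subunit of a heterodimeric triplet polymerase ribozyme, retaining genotypes with ≥10 input reads and ≥1 read per output.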

Variant	polymerase ribozyme fitness (log ratio)
A3G U9G G48C G141C	≤ -4.2
U4G A19U A39U U53G C87A A91G C105U A106G A110U A147U	≤ -4.2
U4G A29G G92U G100U	≤ -4.2
C5A A16U U53A C57G U90G C95A	≤ -4.2
A3U U53A C93A U101C C125U C132U G140U A147C	≤ -4.2
A3U A17G A49C C93A U104A A119C C132U G141C U145G	≤ -4.2
C5A A28G C51G C54A G88C C95G C131A	≤ -4.2
A3U A60G A64C G70A C93U A113U C116G U139G	≤ -4.2
U4G A20C C85U	-0.147
U4C A40G G92C G136U U146G	≤ -4.2
A3G U33G G58A C75A A142C G152A	≤ -4.2
A3U C10U U44A A66G C85A G136U	≤ -4.2
A3U G25C C38U C85A C116A C123U	-2.27
U4G C14G C18A U45A A47C A49C G81A G83A G92C A138G A142U	≤ -4.2
A3U C10U U61A G65A A66C	≤ -4.2
A3U A20G A49C	≤ -4.2
U4A C38U A40U G42U A73G U82C G94U A107G	≤ -4.2
U4A C35A A37G U56A C75G C108G G140U	≤ -4.2
A3U C8U A91U C93U	≤ -4.2
U4C G11A C57A C96U G124A A150C	≤ -4.2
C5G A17G A26C A40U U82G C87U C118G C129A C131A G141C	≤ -4.2

Variant	polymerase ribozyme fitness (log ratio)
A3G C96U C105A A107U G133A U144A U145C	≤ -4.2
A3U G11U C14G C51U A52C C87G C96U G112C	≤ -4.2
A3U U6G A24U A29U U55A G74U G88A C93U C103G U134A	≤ -4.2
A3G C27U U55A U90C G94U C114G C116A	≤ -4.2
U4A C8U C10U C51U U55G C99G U148G	≤ -4.2
U4A C75A C76U G86A C123U	≤ -4.2
A3U U9A C38U C54U G68U G94A	≤ -4.2
C5A A37U A64U U90A C95U C105G C132A	≤ -4.2
A3G C8G A28G G46U G50A G67C G92C A107U G143U	≤ -4.2
U4C A20C A40G G84U U127A	≤ -4.2
C5A C27U	-1.46
C5A A28C C32U A60C G74C C85U A98G	≤ -4.2
C5A A17C A37U A47U C85G G92U G136A G141A	≤ -4.2
U4G C38A A47C C85G	-3.7
U4G A89U A91C C96G	≤ -4.2
U4C A29C C54U G84A A97U	≤ -4.2
U4A C18U G67A C93G G124A	≤ -4.2
A3G C76A C85U A122U G133U A137G G140C	≤ -4.2
U4G C8G A24U A41G G58C C76A C85U C105A	≤ -4.2
A3U U4G C10A C14G U55G C69U A113G	≤ -4.2
U4A U9G A24U C27A A122C	≤ -4.2
